Reference: patent EP0412508A1, “Analogues of vasopressin, their preparation and pharmaceutical use” (CESKOSLOVENSKA AKADEMIE VED, priority 1989, dated 1991)
Part of at least one peptide drawing is inferred or uncertain, most often the ends. Bridge positions count the residues as written; N and C are the ends. Square brackets hold non-standard residues; d marks the D form. Peptide text beside a SMILES is read from it. dPhe(4-Et) = CCc1ccc(C[C@@H](N)C(=O)O)cc1; dPhe(4-Me) = Cc1ccc(C[C@@H](N)C(=O)O)cc1; Phe(4-Et) = CCc1ccc(C[C@H](N)C(=O)O)cc1; Phe(4-Me) = Cc1ccc(C[C@H](N)C(=O)O)cc1; d(hArg) = N=C(N)NCCCC[C@@H](N)C(=O)O; Mpa = O=C(O)CCS

What was measured:
Ratten [1] = test: uterotonic (agonistic or inhibitory) activity according to Holton, modified by Munsick (printed 'Munich'); conditions: for Uterotonische Wirksamkeit, pA₂: inhibitory activity expressed as pA2, rat; for Uterotonische Wirksamkeit: agonistic activity, rat
Text: (§1) Die biologische Wirksamkeit wurde an Ratten bestimmt: Die uterotonische (agonistische oder inhibitorische) Wirksamkeit wurde nach Holton (Holton, J. Brit. J. Pharmacol. 3, 328, 1948) in der Bearbeitung nach Munich (Endocrinology 66, 451, 1960) bestimmt; die inhibitorische Aktivität wurde ausgedrückt als pA2 (Eggen et al., J. Gen. Physiol. 56, 250, 1970), die pressorische Wirksamkeit wurde an despinalisierten Rattenmännchen nach Krejci et al., (Brit. J. Pharm. Chemother. 30, 497, 1967) bestimmt, die antidiuretische nach Burn (Burn et al., Biol. Stand., Oxford Univ. Press London 1950). Als Standard wurde für den antidiuretischen Test das [1-Desamino,8-D-Arginin]-Vasopressin (dDAVP) verwendet. Eine Übersicht der biologischen Wirksamkeiten ist der Tabelle 1 zu entnehmen.

[2] = test system: despinalisierten Rattenmännchen; test: pressor activity on despinalised male rats according to Krejci et al.; type: in vivo, Ratten; conditions: for Pressorische Wirksamkeit: agonistic activity, despinalised male rats; for Pressorische Wirksamkeit, pA₂: inhibitory activity expressed as pA2, despinalised male rats
Text: as §1

Ratten [3] = test: antidiuretic activity according to Burn, standard dDAVP; type: in vivo; conditions: rat; relative to standard [1-Desamino,8-D-Arginin]-Vasopressin (dDAVP)
Text: as §1

Row | Compound | Uterotonische Wirksamkeit, pA₂ (Ratten [1]) | Pressorische Wirksamkeit [2] | Antidiuretische Wirksamkeit (% dDAVP) (Ratten [3]) | Pressorische Wirksamkeit, pA₂ [2] | Uterotonische Wirksamkeit (Ratten [1])
1 | COc1ccc(C[C@@H]2NC(=O)[C@@H](N)CSSC[C@@H](C(=O)N3CCC[C@H]3C(=O)N[C@H](CCCCNC(=N)N)C(=O)NCC(N)=O)NC(=O)[C@H](CC(N)=O)NC(=O)[C@H](CCC(N)=O)NC(=O)[C@H](Cc3ccccc3)NC2=O)cc1 [I, [2-O-Methyltyrosin,8-D-Homoarginin]-Vasopressin] | pA₂ = 7,7 | 0,04 IU/mg | – | – | –
2 | Cc1ccc(C[C@@H]2NC(=O)[C@@H](N)CSSC[C@@H](C(=O)N3CCC[C@H]3C(=O)N[C@H](CCCCNC(=N)N)C(=O)NCC(N)=O)NC(=O)[C@H](CC(N)=O)NC(=O)[C@H](CCC(N)=O)NC(=O)[C@H](Cc3ccccc3)NC2=O)cc1 [IV, [2-p-Methyl-L-phenylalanin,8-D-Homoarginin]-Vasopressin] (H-C[Phe(4-Me)]FQNCP[d(hArg)]G-NH2; disulfide 1-6) | pA₂ = 6,85 | 0,04 IU/mg | < 0,1 % dDAVP | – | –
3 | Cc1ccc(C[C@@H]2NC(=O)CCSSC[C@@H](C(=O)N3CCC[C@H]3C(=O)N[C@H](CCCCNC(=N)N)C(=O)NCC(N)=O)NC(=O)[C@H](CC(N)=O)NC(=O)[C@H](CCC(N)=O)NC(=O)[C@H](Cc3ccccc3)NC2=O)cc1 [IX, [Mpr¹, L-p-MePhe², D-Har⁸]-Vasopressin] ([Mpa][Phe(4-Me)]FQNCP[d(hArg)]G-NH2; disulfide 1-6) | pA₂ = 8,38 | – | < 1 % dDAVP | pA₂ = 6,2 | –
4 | COc1ccc(C[C@@H]2NC(=O)CCSSC[C@@H](C(=O)N3CCC[C@H]3C(=O)N[C@H](CCCCNC(=N)N)C(=O)NCC(N)=O)NC(=O)[C@H](CC(N)=O)NC(=O)[C@H](CCC(N)=O)NC(=O)[C@H](Cc3ccccc3)NC2=O)cc1 [VI, [1-Mercaptopropionsäure,2-O-Methyltyrosin, 8-D-Homoarginin]-Vasopressin] | pA₂ = 8,1 | – | – | – | –
5 | CCc1ccc(C[C@@H]2NC(=O)CCSSC[C@@H](C(=O)N3CCC[C@H]3C(=O)N[C@H](CCCCNC(=N)N)C(=O)NCC(N)=O)NC(=O)[C@H](CC(N)=O)NC(=O)[C@H](CCC(N)=O)NC(=O)[C@H](Cc3ccccc3)NC2=O)cc1 [VII, [Mpr¹, L-p-EtPhe², D-Har⁸]-Vasopressin] ([Mpa][Phe(4-Et)]FQNCP[d(hArg)]G-NH2; disulfide 1-6) | pA₂ = 8,0 | – | < 1 % dDAVP | pA₂ = 6,2 | –
6 | CCc1ccc(C[C@H]2NC(=O)CCSSC[C@@H](C(=O)N3CCC[C@H]3C(=O)N[C@H](CCCCNC(=N)N)C(=O)NCC(N)=O)NC(=O)[C@H](CC(N)=O)NC(=O)[C@H](CCC(N)=O)NC(=O)[C@H](Cc3ccccc3)NC2=O)cc1 [VIII, [Mpr¹, D-p-EtPhe², D-Har⁸]-Vasopressin] ([Mpa][dPhe(4-Et)]FQNCP[d(hArg)]G-NH2; disulfide 1-6) | pA₂ = 8,63 | – | < 1 % dDAVP | pA₂ = 6,35 | –
7 | Cc1ccc(C[C@H]2NC(=O)CCSSC[C@@H](C(=O)N3CCC[C@H]3C(=O)N[C@H](CCCCNC(=N)N)C(=O)NCC(N)=O)NC(=O)[C@H](CC(N)=O)NC(=O)[C@H](CCC(N)=O)NC(=O)[C@H](Cc3ccccc3)NC2=O)cc1 [X, [Mpr¹, D-p-MePhe², D-Har⁸]-Vasopressin] ([Mpa][dPhe(4-Me)]FQNCP[d(hArg)]G-NH2; disulfide 1-6) | pA₂ = 8,68 | – | < 1 % dDAVP | – | –
8 | N=C(N)NCCCC[C@@H](NC(=O)[C@@H]1CCCN1C(=O)[C@@H]1CSSC[C@H](N)C(=O)N[C@@H](Cc2ccc(O)cc2)C(=O)N[C@@H](Cc2ccccc2)C(=O)N[C@@H](CCC(N)=O)C(=O)N[C@@H](CC(N)=O)C(=O)N1)C(=O)NCC(N)=O [[D-Har⁸]Vasopressin, reference compound] | – | – | ∼ 1 % dDAVP | – | 0,9 U/mg
9 | N=C(N)NCCCC[C@@H](NC(=O)[C@@H]1CCCN1C(=O)[C@@H]1CSSCCC(=O)N[C@@H](Cc2ccc(O)cc2)C(=O)N[C@@H](Cc2ccccc2)C(=O)N[C@@H](CCC(N)=O)C(=O)N[C@@H](CC(N)=O)C(=O)N1)C(=O)NCC(N)=O [[Mpr¹, D-Har⁸]Vasopressin, reference compound] | – | 0,28 IU/mg | ∼ 5 % dDAVP | – | 0,8 U/mg
